# In patent US5760092A, “Allocolchinones and uses thereof” (Brandeis University, priority 1996, dated 1998):
# Where “and” joins values, the source holds several entries; their conditions need not be identical. Identical values can stand only once. Like-named read-outs stand apart in the source and are kept apart here.
# Key:
# [1] = system: NCI-H522 non-small cell lung cancer cells
# MALME-3M melanoma cells = assay: cells; conditions: Homo sapiens
# [2] = system: MDA-MB-231/ATCC breast cancer cells; assay: cells; conditions: Homo sapiens
# SK-MEL-5 melanoma cells [3] = system: SK-MEL-5 melanoma cells
# ACHN renal cancer cells [4] = assay: cells; conditions: Homo sapiens
# [5] = system: NCI-H23 non-small cell lung cancer cells; assay: cells; conditions: Homo sapiens
# SN12C renal cancer cells = assay: cells; conditions: Homo sapiens
# SR leukemia cells = conditions: log10 conc -8.0
# [6] = system: BT-549 breast cancer cells; assay: cells; conditions: Homo sapiens
# LOX IMVI melanoma cells = assay: cells; conditions: Homo sapiens
# [7] = system: SW-620 colon cancer cells; assay: cells; conditions: Homo sapiens
# [8] = system: HCT-116 colon cancer cells
# [9] = system: OVCAR-5 ovarian cancer cells; assay: cells; conditions: Homo sapiens
# [10] = system: IGR-OV1 ovarian cancer cells
# [11] = system: BT-549 breast cancer cells; conditions: log10 conc -8.0; 0.01 µM
# [12] = system: MDA-MB-435 breast cancer cells; conditions: log10 conc -6.0; 1 µM
# SK-MEL-5 melanoma cells [13] = assay: cells; conditions: Homo sapiens
# RPMI-8226 leukemia cells = assay: cells; conditions: Homo sapiens
# [14] = system: HCT-116 colon cancer cells; assay: cells; conditions: Homo sapiens
# ACHN renal cancer cells [15] = system: ACHN renal cancer cells
# 786-0 renal cancer cells = assay: cells; conditions: Homo sapiens
# [16] = system: PC-3 prostate cancer cells
# UACC-62 melanoma cells = assay: cells; conditions: Homo sapiens
# [17] = read-out: Percent Growth, log10 conc -4.0
# [18] = read-out: Percent Growth, log10 conc -5.0
# [19] = read-out: Percent Growth, log10 conc -6.0
# [20] = read-out: Percent Growth, log10 conc -7.0
# [21] = read-out: Percent Growth, log10 conc -8.0
# [22] = read-out: Percent Growth, log10 conc -9.0
# [23] = read-out: Percent Growth, log10 conc -10.0
compound,measurement,setting,value
COc1cc2c(c(OC)c1OC)-c1ccc(C(C)=O)cc1C(NC(C)=O)CC2 (stereo not shown),Percent Growth,"[1]; log10 conc -6.0, 1 µM",1%
same,Percent Growth,"[1]; log10 conc -7.0, 0.1 µM",-3% and 0%
same,Percent Growth,[1]; log10 conc -8.0,16%
same,activity at 100 µM,MALME-3M melanoma cells; [17],42%
same,activity at 10 µM,MALME-3M melanoma cells; [18],46%
same,activity at 1 µM,MALME-3M melanoma cells; [19],57%
same,activity at 0.1 µM,MALME-3M melanoma cells; [20],51%
same,activity at 0.01 µM,MALME-3M melanoma cells; [21],52%
same,activity at 0.001 µM,MALME-3M melanoma cells; [22],53%
same,activity at 0.0001 µM,MALME-3M melanoma cells; [23],91%
same,activity at 100 µM,"[2]; MDA-MB-231, read-out: Percent Growth, log10 conc -4.0",32%
same,activity at 10 µM,"[2]; MDA-MB-231, read-out: Percent Growth, log10 conc -5.0",14%
same,activity at 0.001 µM,"[2]; MDA-MB-231, read-out: Percent Growth, log10 conc -9.0",10%
same,activity at 0.0001 µM,"[2]; MDA-MB-231, read-out: Percent Growth, log10 conc -10.0",62%
same,Percent Growth,"SK-MEL-5 melanoma cells [3]; log10 conc -7.0, 0.1 µM",3%
same,Percent Growth,"SK-MEL-5 melanoma cells [3]; log10 conc -8.0, 0.01 µM",24%
same,activity at 100 µM,ACHN renal cancer cells [4]; [17],20%
same,activity at 10 µM,ACHN renal cancer cells [4]; [18],26%
same,activity at 0.01 µM,ACHN renal cancer cells [4]; [21],61%
same,activity at 0.001 µM,ACHN renal cancer cells [4]; [22],71%
same,activity at 0.0001 µM,ACHN renal cancer cells [4]; [23],104%
same,activity at 100 µM,"[5]; NCI-H23, read-out: Percent Growth, log10 conc -4.0",16%
same,activity at 10 µM,"[5]; NCI-H23, read-out: Percent Growth, log10 conc -5.0",22%
same,activity at 1 µM,"[5]; NCI-H23, read-out: Percent Growth, log10 conc -6.0",34%
same,activity at 0.1 µM,"[5]; NCI-H23, read-out: Percent Growth, log10 conc -7.0",26%
same,activity at 0.01 µM,"[5]; NCI-H23, read-out: Percent Growth, log10 conc -8.0",20%
same,activity at 0.001 µM,"[5]; NCI-H23, read-out: Percent Growth, log10 conc -9.0",23%
same,activity at 0.0001 µM,"[5]; NCI-H23, read-out: Percent Growth, log10 conc -10.0",101%
same,activity at 100 µM,SN12C renal cancer cells; [17],17%
same,activity at 10 µM,SN12C renal cancer cells; [18],17%
same,activity at 1 µM,SN12C renal cancer cells; [19],31%
same,activity at 0.1 µM,SN12C renal cancer cells; [20],31%
same,activity at 0.01 µM,SN12C renal cancer cells; [21],33%
same,activity at 0.001 µM,SN12C renal cancer cells; [22],55%
same,activity at 0.0001 µM,SN12C renal cancer cells; [23],100%
same,Percent Growth,SR leukemia cells,26%
same,Percent Growth,"SK-MEL-28 melanoma cells; log10 conc -6.0, 1 µM",60%
same,Percent Growth,"SK-MEL-28 melanoma cells; log10 conc -7.0, 0.1 µM",51%
same,Percent Growth,"SK-MEL-28 melanoma cells; log10 conc -8.0, 0.01 µM",55%
same,activity at 100 µM,"[6]; BT-549, read-out: Percent Growth, log10 conc -4.0",56%
same,activity at 10 µM,"[6]; BT-549, read-out: Percent Growth, log10 conc -5.0",55%
same,activity at 1 µM,"[6]; BT-549, read-out: Percent Growth, log10 conc -6.0",46%
same,activity at 0.1 µM,"[6]; BT-549, read-out: Percent Growth, log10 conc -7.0",46%
same,activity at 0.01 µM,"[6]; BT-549, read-out: Percent Growth, log10 conc -8.0",54%
same,activity at 0.001 µM,"[6]; BT-549, read-out: Percent Growth, log10 conc -9.0",62%
same,activity at 0.0001 µM,"[6]; BT-549, read-out: Percent Growth, log10 conc -10.0",93%
same,activity at 100 µM,LOX IMVI melanoma cells; [17],25%
same,activity at 10 µM,LOX IMVI melanoma cells; [18],26%
same,activity at 0.1 µM,LOX IMVI melanoma cells; [20],16%
same,activity at 0.001 µM,LOX IMVI melanoma cells; [22],39%
same,activity at 0.0001 µM,LOX IMVI melanoma cells; [23],86%
same,activity at 100 µM,"[7]; SW-620, read-out: Percent Growth, log10 conc -4.0",23%
same,activity at 10 µM,"[7]; SW-620, read-out: Percent Growth, log10 conc -5.0",17%
same,activity at 1 µM,"[7]; SW-620, read-out: Percent Growth, log10 conc -6.0",23%
same,activity at 0.1 µM,"[7]; SW-620, read-out: Percent Growth, log10 conc -7.0",24%
same,activity at 0.01 µM,"[7]; SW-620, read-out: Percent Growth, log10 conc -8.0",23%
same,activity at 0.001 µM,"[7]; SW-620, read-out: Percent Growth, log10 conc -9.0",22%
same,activity at 0.0001 µM,"[7]; SW-620, read-out: Percent Growth, log10 conc -10.0",90%
same,Percent Growth,"[8]; log10 conc -6.0, 1 µM",-3%
same,Percent Growth,"[8]; log10 conc -7.0, 0.1 µM",7%
same,activity at 100 µM,"[9]; OVCAR-5, read-out: Percent Growth, log10 conc -4.0",21%
same,activity at 10 µM,"[9]; OVCAR-5, read-out: Percent Growth, log10 conc -5.0",23%
same,activity at 1 µM,"[9]; OVCAR-5, read-out: Percent Growth, log10 conc -6.0",41%
same,activity at 0.01 µM,"[9]; OVCAR-5, read-out: Percent Growth, log10 conc -8.0",39%
same,activity at 0.001 µM,"[9]; OVCAR-5, read-out: Percent Growth, log10 conc -9.0",41%
same,activity at 0.0001 µM,"[9]; OVCAR-5, read-out: Percent Growth, log10 conc -10.0",103%
same,Percent Growth,"[10]; log10 conc -7.0, 0.1 µM",19% and 9%
same,Percent Growth,[10]; log10 conc -8.0,47%
same,Percent Growth,"[10]; log10 conc -8.0, 0.01 µM",24%
same,Percent Growth,[11],74%
same,Percent Growth,[12],-52%
same,activity at 100 µM,"SK-MEL-5 melanoma cells [13]; SK-MEL-5, read-out: Percent Growth, log10 conc -4.0",-20%
same,activity at 10 µM,"SK-MEL-5 melanoma cells [13]; SK-MEL-5, read-out: Percent Growth, log10 conc -5.0",-2%
same,activity at 1 µM,"SK-MEL-5 melanoma cells [13]; SK-MEL-5, read-out: Percent Growth, log10 conc -6.0",0%
same,activity at 0.1 µM,"SK-MEL-5 melanoma cells [13]; SK-MEL-5, read-out: Percent Growth, log10 conc -7.0",4%
same,activity at 0.01 µM,"SK-MEL-5 melanoma cells [13]; SK-MEL-5, read-out: Percent Growth, log10 conc -8.0",19%
same,activity at 0.001 µM,"SK-MEL-5 melanoma cells [13]; SK-MEL-5, read-out: Percent Growth, log10 conc -9.0",34%
same,activity at 0.0001 µM,"SK-MEL-5 melanoma cells [13]; SK-MEL-5, read-out: Percent Growth, log10 conc -10.0",82%
same,activity at 100 µM,"RPMI-8226 leukemia cells; RPMI-8226, read-out: Percent Growth, log10 conc -4.0",24%
same,activity at 10 µM,"RPMI-8226 leukemia cells; RPMI-8226, read-out: Percent Growth, log10 conc -5.0",20%
same,activity at 0.0001 µM,"RPMI-8226 leukemia cells; RPMI-8226, read-out: Percent Growth, log10 conc -10.0",89%
same,activity at 100 µM,"[14]; HCT-116, read-out: Percent Growth, log10 conc -4.0",4%
same,activity at 10 µM,"[14]; HCT-116, read-out: Percent Growth, log10 conc -5.0",6%
same,activity at 0.1 µM,"[14]; HCT-116, read-out: Percent Growth, log10 conc -7.0",14%
same,activity at 0.01 µM,"[14]; HCT-116, read-out: Percent Growth, log10 conc -8.0",12%
same,activity at 0.001 µM,"[14]; HCT-116, read-out: Percent Growth, log10 conc -9.0",21%
same,activity at 0.0001 µM,"[14]; HCT-116, read-out: Percent Growth, log10 conc -10.0",106%
same,Percent Growth,"ACHN renal cancer cells [15]; log10 conc -6.0, 1 µM",47%
same,Percent Growth,"ACHN renal cancer cells [15]; log10 conc -7.0, 0.1 µM",47% and 24%
same,Percent Growth,"ACHN renal cancer cells [15]; log10 conc -8.0, 0.01 µM",47%
same,activity at 100 µM,"786-0 renal cancer cells; 786-0, read-out: Percent Growth, log10 conc -4.0",10%
same,activity at 10 µM,"786-0 renal cancer cells; 786-0, read-out: Percent Growth, log10 conc -5.0",15%
same,activity at 1 µM,"786-0 renal cancer cells; 786-0, read-out: Percent Growth, log10 conc -6.0",39%
same,activity at 0.1 µM,"786-0 renal cancer cells; 786-0, read-out: Percent Growth, log10 conc -7.0",36%
same,activity at 0.001 µM,"786-0 renal cancer cells; 786-0, read-out: Percent Growth, log10 conc -9.0",51%
same,activity at 0.0001 µM,"786-0 renal cancer cells; 786-0, read-out: Percent Growth, log10 conc -10.0",96%
same,Percent Growth,"[16]; log10 conc -6.0, 1 µM",30%
same,Percent Growth,"[16]; log10 conc -7.0, 0.1 µM",30%
same,Percent Growth,"[16]; log10 conc -8.0, 0.01 µM",40%
same,Percent Growth,"UO-31 renal cancer cells; log10 conc -6.0, 1 µM",25%
same,Percent Growth,"UO-31 renal cancer cells; log10 conc -7.0, 0.1 µM",39%
same,Percent Growth,UO-31 renal cancer cells; log10 conc -8.0,89%
same,Percent Growth,"UO-31 renal cancer cells; log10 conc -8.0, 0.01 µM",51%
same,Percent Growth,"UACC-257 melanoma cells; log10 conc -7.0, 0.1 µM",65% and 33%
same,Percent Growth,"UACC-257 melanoma cells; log10 conc -8.0, 0.01 µM",74% and 45%
same,activity at 100 µM,"UACC-62 melanoma cells; UACC-62, read-out: Percent Growth, log10 conc -4.0",33%
same,activity at 10 µM,"UACC-62 melanoma cells; UACC-62, read-out: Percent Growth, log10 conc -5.0",31%
same,activity at 1 µM,"UACC-62 melanoma cells; UACC-62, read-out: Percent Growth, log10 conc -6.0",38%
same,activity at 0.1 µM,"UACC-62 melanoma cells; UACC-62, read-out: Percent Growth, log10 conc -7.0",36%
same,activity at 0.01 µM,"UACC-62 melanoma cells; UACC-62, read-out: Percent Growth, log10 conc -8.0",33%
same,activity at 0.001 µM,"UACC-62 melanoma cells; UACC-62, read-out: Percent Growth, log10 conc -9.0",37%
same,activity at 0.0001 µM,"UACC-62 melanoma cells; UACC-62, read-out: Percent Growth, log10 conc -10.0",95%
